# Data from publication PMC4336329 (PLoS ONE, 2015).
# Among all 310,000 compounds or so, about 14,000 (4.5%) showed an effect of 50% or more. Effects have a minus sign here. Some of the results follow.
# Target: human ether-à-go-go-related gene (hERG) potassium channel (human, UniProt Q12809)
# Assay: primary screen, population patch clamp on CHO cells stably expressing hERG
# 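Note: peak tail current of the secondary pulse compared with the same well before compound.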
# Sequence of human ether-à-go-go-related gene (hERG) potassium channel (Q12809 whole entry, looked up): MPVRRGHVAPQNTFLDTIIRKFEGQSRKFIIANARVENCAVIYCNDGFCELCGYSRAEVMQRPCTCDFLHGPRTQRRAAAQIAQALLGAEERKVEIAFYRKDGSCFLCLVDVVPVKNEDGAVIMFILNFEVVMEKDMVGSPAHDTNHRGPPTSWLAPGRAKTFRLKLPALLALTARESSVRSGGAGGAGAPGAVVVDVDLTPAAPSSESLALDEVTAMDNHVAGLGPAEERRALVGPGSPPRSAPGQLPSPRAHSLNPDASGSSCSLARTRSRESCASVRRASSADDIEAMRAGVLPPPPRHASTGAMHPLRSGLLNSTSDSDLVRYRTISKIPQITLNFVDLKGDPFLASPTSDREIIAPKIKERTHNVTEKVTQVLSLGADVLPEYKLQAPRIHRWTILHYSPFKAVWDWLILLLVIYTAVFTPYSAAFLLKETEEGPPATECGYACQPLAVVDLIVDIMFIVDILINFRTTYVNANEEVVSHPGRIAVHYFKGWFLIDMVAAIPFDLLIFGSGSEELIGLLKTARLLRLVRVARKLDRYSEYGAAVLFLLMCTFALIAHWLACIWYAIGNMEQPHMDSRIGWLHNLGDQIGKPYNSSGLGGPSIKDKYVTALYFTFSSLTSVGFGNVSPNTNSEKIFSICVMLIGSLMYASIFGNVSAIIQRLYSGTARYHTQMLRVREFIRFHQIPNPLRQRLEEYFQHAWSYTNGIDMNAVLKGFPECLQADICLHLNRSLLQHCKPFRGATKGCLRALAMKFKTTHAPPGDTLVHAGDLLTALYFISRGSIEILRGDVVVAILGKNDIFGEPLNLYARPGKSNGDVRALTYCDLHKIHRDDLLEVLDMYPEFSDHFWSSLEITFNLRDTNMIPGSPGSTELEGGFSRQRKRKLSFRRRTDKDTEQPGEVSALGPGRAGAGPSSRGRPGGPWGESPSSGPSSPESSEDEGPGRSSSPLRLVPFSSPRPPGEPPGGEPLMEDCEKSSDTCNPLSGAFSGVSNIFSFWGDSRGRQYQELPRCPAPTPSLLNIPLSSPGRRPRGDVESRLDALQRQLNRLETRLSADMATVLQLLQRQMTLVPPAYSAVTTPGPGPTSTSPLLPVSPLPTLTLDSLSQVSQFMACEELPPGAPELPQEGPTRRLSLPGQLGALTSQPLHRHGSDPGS
row,Structure (SMILES),"hERG current change (%, negative = inhibition) at 10uM"
1,CCc1ccc(C(C(=O)NCc2ccccc2)N(C(=O)c2csnn2)C2CC2)cc1 (stereo not drawn),-24.3%
2,CCOc1ccccc1NC(=O)C1CCC(CNc2c(N3CCOCC3)c(=O)c2=O)CC1 (stereo not drawn),8.54%
3,CN(CC(=O)Nc1ccc(N2CCOCC2)cc1)C(=O)c1cc(F)c(F)cc1Cl,-38.3%
4,COc1cc(NC(=O)/C=C/c2ccccc2[N+](=O)[O-])cc(OC)c1,7.65%
5,Cc1ccc(C(=O)NC(=S)Nc2ccc(N3CCOCC3)cc2)c(C)c1,-13.7%
6,CC(=O)N(c1ccccc1C)C1CCCC1,7.62%
7,O=C(OCC(=O)N1CCc2ccccc21)c1ccccn1,13.1%
8,Cc1cccc(C(=O)NCCNC(=O)c2ccco2)c1,12.2%
9,CN(Cc1cccs1)C(=O)COc1ccc(-c2nnco2)cc1,14.2%
10,CCc1ccc(OCCOCC(O)CNC(C)(C)C)cc1.Cl (stereo not drawn),-4.94%
11,CC(=O)C1C(c2ccc(F)c(F)c2)NC(=O)NC1(O)C(F)(F)F (stereo not drawn),11.8%
12,COc1cccc2c(C)c(C(=O)O)[nH]c12,2.19%
13,O=C(Nc1ccccn1)c1ccc(Cl)s1,4.9%
14,CC(c1ccccc1F)n1cc(C(=O)NCCc2ccco2)nn1 (stereo not drawn),-11%
15,CCN1C(=O)c2cccc3c(S(=O)(=O)NCc4ccccc4)ccc1c23,-26.1%
16,N#CC1=C(N)Oc2n[nH]c(-c3ccccc3)c2C1c1cccnc1 (stereo not drawn),7.17%
17,COc1cccc(N2CCN(c3ccc4nnc(CCC(=O)N5CCC(C)CC5)n4n3)CC2)c1,-66.4%
18,O=C(COc1ccc(F)c(Cl)c1)c1ccc[nH]1,-3.97%
19,Cc1cc(Nc2ccccc2)nc(N)n1,4.4%
20,COc1cc(Cl)cc2c1Sc1ccccc1/C2=C/CCN(C)C.O=S(=O)(O)O,-48.7%
21,c1cncc(-c2nc(NCc3ccc4c(c3)OCO4)c3ccccc3n2)c1,-16.6%
22,COc1ccc(C(=O)N/C(=C/c2cccnc2)C(=O)Nc2cccc(C(C)=O)c2)cc1OC,21.2%

row,Structure (SMILES),"hERG current change (%, negative = inhibition) at 10uM"
1,COc1ccc(-c2nc(NC(=O)c3[nH]c(C)c(C(C)=O)c3C)sc2C)cc1,1%
2,COc1ccc(-n2c(C)c([N+](=O)[O-])c3ccc(O)c(CN(C)C)c32)cc1,-57.6%
3,CC(=O)Nc1ccc2c(c1)ncn2-c1ccc(C)cc1,-1.92%
4,Cc1ccc(Sc2cc(C(F)(F)F)nc(N(C)C)n2)cc1,10.3%
5,COCc1ccc(CN2CCC(Oc3ccc(C(=O)NCc4ccccn4)cc3)CC2)o1,32.5%
6,O=C(Cc1ccc(NC2=NC3CS(=O)(=O)CC3S2)cc1)NCc1ccccc1Cl (stereo not drawn),6.5%
7,CCn1c(SCC(=O)N(C)CC(=O)Nc2ccc(F)c(F)c2F)nnc1-c1ccco1,4.16%
8,CCOc1cc(/C=C/C(=O)O)ccc1OCCOc1ccc(F)cc1,-5.87%
9,Cc1ccc(S(=O)(=O)N(C)C)cc1NC(=O)COC(=O)CSc1ccccc1,-21.3%
10,Fc1ccc(NC(=S)N2N=CCC2c2ccccc2)cc1 (stereo not drawn),-32%
11,Cn1cnnc1SCC(=O)Nc1ccc(Cl)cn1,14.5%
12,O=C1N(c2cccc(Cl)c2)C(c2cccnc2)N2CCCN12 (stereo not drawn),-4.39%
13,Cc1ccc(OCC(=O)Oc2cccc(C)c2)cc1,25.8%
14,COc1ccc(NC(=O)Cn2c(=O)n(CCC(=O)NCC3CCCO3)c(=O)c3cc(OC)c(OC)cc32)cc1 (stereo not drawn),11.5%
15,Cc1occc1C(=O)NNC(=O)c1nn(C)c(=O)c2ccccc12,8.46%
16,O=S(=O)(c1cccc2nonc12)N1CCN(c2ccc(F)cc2)CC1,10.1%
17,COc1ccccc1-c1nnc(NC(=O)OCC(C)C)s1,0.412%
18,CCC(c1nc2ccccc2c(=O)n1CCN1CCOCC1)N1C(=O)c2ccccc2C1=O (stereo not drawn),-15.5%
19,CSc1ccc(/C=C(\NC(=O)c2ccco2)C(=O)N2CCCCC2)cc1,-29.6%
20,COc1cccc(C(=O)Nc2ccc(C(=O)NCC(C)C)cc2)c1,8.38%
21,CCOC(=O)CN(C(=O)CNC(=O)c1ccco1)C(C(=O)NC1CCCCC1)c1cccc(OC)c1 (stereo not drawn),2.32%
22,Cc1onc(-c2ccccc2)c1C(=O)N/N=C/c1cc2c(cc1Br)OCO2,8.42%

row,Structure (SMILES),"hERG current change (%, negative = inhibition) at 10uM"
1,CCN(CC(=O)NCc1cccs1)S(=O)(=O)c1c(F)cccc1F,0.594%
2,O=C(Nc1ccc(N2CCOCC2)cc1)c1ccc(Cl)cc1N1CCCC1=O,-8.24%
3,O=C(N/C(=C\c1ccc(Br)cc1)C(=O)N1CCOCC1)c1ccccc1Cl,-2.31%
4,CCOCCOCN(C#N)c1nc(OC)nc(N(C)C)n1,15.8%
5,COc1ccc(O)c(C(=O)c2cc(C(=O)NCCc3ccccc3)c(=O)n(CCc3ccccc3)c2)c1,-2.37%
6,COC(=O)c1ccccc1S(=O)(=O)N1CCC(C(=O)N(C)CCOc2ccccc2)CC1,-3.11%
7,CCCc1nc2scc(-c3ccc(C)cc3)c2c(=O)n1N,10.3%
8,O=C(N/N=C/c1c[nH]c2ccccc12)C1CC(=O)N(c2ccccc2)C1 (stereo not drawn),10.1%
9,O=C(CCN1C(=O)c2ccccc2C1=O)Nc1ccc(F)cc1,-6%
10,COc1ccc(-n2nc(C(=O)NCC(=O)N3CCOCC3)c3ccccc3c2=O)c(OC)c1,9.32%
11,CC1=CC2=NC(=O)/C(=C\c3cc(C)n(-c4cccc(Cl)c4)c3C)C(=N)N2O1,-0.972%
12,COc1ccc(N2CCN(CCNC(=O)c3nnc(Cc4c(F)cccc4Cl)o3)CC2)cc1,-5.6%
13,Cc1c(NC(=O)/C=C/c2cn(-c3ccccc3)nc2-c2ccccc2)c(=O)n(-c2ccccc2)n1C,-17.7%
14,COc1ccc(C(=O)NCC(=O)N2CCNC(=O)C2)cc1OC,22.9%
15,c1ccc(-n2c(-c3ccncc3)nnc2-c2ccco2)cc1,-20.6%
16,COc1cc(OC)c2c(c1C(CCN1CCOCC1)c1ccc(N(C)C)cc1)OC(=O)CC2c1ccc(N(C)C)cc1 (stereo not drawn),17%
17,CCOC(=O)N1CCN(C(=S)Nc2cc(S(=O)(=O)N3CCOCC3)ccc2Cl)CC1,3.28%
18,CCOc1ccc2nc(SCC(=O)N(CC(C)C)c3c(N)n(Cc4ccccc4)c(=O)[nH]c3=O)[nH]c2c1,-4.56%
19,COc1ccccc1C(=O)NCC(=O)NCCC(c1ccccc1)c1ccccc1,-64.4%
20,C/C(=N\NC(N)=S)c1ccc2c(c1)OCCO2,10%
21,Cc1ccc2c(c1)sc1nc(=O)n(-c3ccc(Cl)cc3)c(=O)n12,6.6%
22,CCCCCCCCS(=O)c1sc2nc3c(cc2c1N)CCCC3 (stereo not drawn),11.9%

row,Structure (SMILES),"hERG current change (%, negative = inhibition) at 10uM"
1,COc1ccccc1OCCNC(=O)C1CCCCC1,28.8%
2,COc1cc(Cl)ccc1OCc1cc(C(=O)N(C)Cc2nnc(C)o2)no1,-1.17%
3,COC(=O)c1ccc(NC(=O)c2ccc(NC(=O)C3CCCO3)cc2)cc1 (stereo not drawn),-27.6%
4,Cc1cccc(NC(=O)CN2C(=O)CNC2=O)c1,5.3%
5,CC1(C)CC(=O)/C(=C\c2cccc([N+](=O)[O-])c2)C(C)(C)N1,0.874%
6,COc1ccc(N(CC2CO2)S(=O)(=O)c2ccc(C)cc2)cc1 (stereo not drawn),6.32%
7,CC(C)(C)NC(=O)CN(Cc1ccc(F)cc1)C(=O)Cn1nnc(-c2ccc(F)cc2)n1,13.1%
8,Cc1cccc(OCCCC(=O)N2CCCCCC2)c1C,11.4%
9,Cc1nn(-c2ncc(C(F)(F)F)cc2Cl)c(=O)n1-c1ccccc1F,6.41%
10,COc1cccc(C(=O)Nc2nc3ccccc3s2)c1,4.88%
11,O=C(c1ccccc1Cl)N1CCC(O)(c2cccnc2)CC1,1.99%
12,CCOc1ccc(N(C(=O)CNS(=O)(=O)c2ccccc2)C(CC)C(=O)NCc2ccco2)cc1 (stereo not drawn),-15.2%
13,CCOc1ccc(Cc2c(Cl)nc(N)nc2Cl)cc1,9.57%
14,CCCC(NC(=O)c1ccccc1)c1nc2ccccc2n1Cc1ccc(C(=O)OC)o1 (stereo not drawn),-22.9%
15,COc1cccc(C(=O)NC2CCN(CC(=O)Nc3c(C)cc(C)cc3C)CC2)c1,-6.27%
16,CC1CCN(S(=O)(=O)c2ccc(NC(=O)C3CC(=O)N(c4ccccc4)C3)cc2)CC1 (stereo not drawn),14.8%
17,O=C(CCn1nnc2ccccc2c1=O)N[C@@H](Cc1c[nH]c2ccccc12)C(=O)O,14.4%
18,O=C(NCCc1ccc(Cl)cc1Cl)c1cncc(Br)c1,-1.57%
19,O=c1[nH]c(=O)n(Cc2ccccc2)c2nc(-c3cccs3)n(CCO)c12,14.3%
20,CCN1CCCC1CNC(=O)Cn1nc(C)n2c(cc3cc(F)ccc32)c1=O (stereo not drawn),5.18%
21,O=C(COC(=O)C1CCC1)NCc1ccc(F)cc1,13.1%
